According to the supplement of paper PMC3334620:
Over roughly 33,000 sequences, “E-score (-0.5 to 0.5)” has its median near -0.021; the highest 2% begin near 0.32. Some of the results follow.

Molecular target: T1, Zap1 (UniProt P47043)
T1 sequence: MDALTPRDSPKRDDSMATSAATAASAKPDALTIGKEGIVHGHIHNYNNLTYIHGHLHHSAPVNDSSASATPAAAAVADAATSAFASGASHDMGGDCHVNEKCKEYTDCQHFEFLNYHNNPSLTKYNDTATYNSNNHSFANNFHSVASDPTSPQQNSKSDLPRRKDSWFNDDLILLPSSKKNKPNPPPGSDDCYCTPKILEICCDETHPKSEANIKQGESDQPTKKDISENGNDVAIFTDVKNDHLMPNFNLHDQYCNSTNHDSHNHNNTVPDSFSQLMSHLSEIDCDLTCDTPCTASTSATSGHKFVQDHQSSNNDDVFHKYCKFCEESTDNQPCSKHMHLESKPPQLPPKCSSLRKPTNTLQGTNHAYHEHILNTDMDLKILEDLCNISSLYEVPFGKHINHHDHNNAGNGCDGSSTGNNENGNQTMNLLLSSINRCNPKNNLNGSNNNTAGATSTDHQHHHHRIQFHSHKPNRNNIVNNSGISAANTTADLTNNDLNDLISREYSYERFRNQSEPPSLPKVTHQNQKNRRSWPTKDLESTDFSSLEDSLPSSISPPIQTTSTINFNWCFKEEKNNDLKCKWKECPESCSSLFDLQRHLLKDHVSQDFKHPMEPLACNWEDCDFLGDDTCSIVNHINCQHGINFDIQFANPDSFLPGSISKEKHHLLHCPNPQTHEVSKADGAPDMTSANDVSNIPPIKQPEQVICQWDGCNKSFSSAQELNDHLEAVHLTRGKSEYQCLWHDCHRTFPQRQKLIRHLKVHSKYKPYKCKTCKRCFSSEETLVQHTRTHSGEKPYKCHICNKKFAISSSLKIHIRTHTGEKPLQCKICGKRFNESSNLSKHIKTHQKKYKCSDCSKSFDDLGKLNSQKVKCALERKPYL
Test: PBM E-score (8-mer binding enrichment) (E-score (-0.5 to 0.5)); higher = stronger / more preferred TF binding; most listed sequences are background and not binding sites
Conditions: protein concentration: 200 nM; construct: GST-full length
In short: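 Full-length yeast transcription factors or their DNA-binding domains, GST-tagged and expressed with PURExpress, were applied at about 100-200 nM to universal all-10-mer Agilent arrays. These arrays had been made double-stranded by primer extension on fresh or once-stripped slides. Detection used fluorescent anti-GST, normalisation used masliner, and E-scores for ungapped eight-base words pooled with reverse complements came from the Universal PBM Analysis Suite.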

Sequence | PBM E-score
ACGTACTG | -0.0495
CACGTAGG | -0.0104
CGGAATTC | -0.128
ACCGTGCC | -0.084
CTTATTAC | 0.062
CTGCGAGA | -0.241
ACCTACTG | -0.0042
CGTGCACC | 0.00545
ACTGCTGG | -0.288
GATCACCC | 0.241
ACAATTCA | 0.0233
TCCTGTAA | 0.128
ACACCTGC | -0.0597
ATGTATTC | -0.0708
CTCGGCCA | -0.0669
CTTATAAC | 0.302
ATACAGCG | -0.178
ACGAGTAA | 0.165
GCTCAGTA | 0.0407
AAAGTTTG | 0.0973
CTACCCAC | 0.0326
TATCATGA | 0.202
GACCCGAC | 0.119
CCAAACGG | -0.0146
ACCTTATA | 0.339

Sequence | PBM E-score
ACCTAGAA | 0.17
ATTTATAC | 0.275
AATTGGCC | -0.083
GCCTTCCA | -0.171
CGCAGGTA | 0.164
AGCCGGAC | 0.0181
CGCCCCCC | -0.358
GGGGAGAA | -0.0462
CGTTACTC | 0.126
CCGGTTAA | 0.261
GTAAAGTA | 0.0618
AACCAGAG | 0.191
CAAGTGTC | -0.0245
GCACGACC | 0.122
CCAATGTA | -0.00387
ATTCCCTC | -0.0432
AAGCGGGT | -0.0261
GAACAGAA | -0.0216
CCTTAAGA | 0.155
ATATAGAG | -0.19
CAGAATCG | -0.163
ACCTCCTA | -0.155
CGACATAC | -0.101
AGTTGGAT | -0.0598
AGTTACAC | 0.0701

Sequence | PBM E-score
GCAGGATA | -0.0914
GACGGCAC | -0.244
ACACCGTG | -0.191
AATGGCGA | -0.137
CCGGTTGC | 0.115
GTGCTTTA | -0.0608
CACACATG | -0.189
GAGAGCGA | -0.186
AATTCGTA | 0.0679
CCTTTGCC | 0.00962
GGTGTGAA | 0.174
CGTTGCAG | -0.0966
CCTAATAG | 0.0191
ACATTAGA | -0.0645
GGCTTGAA | 0.00086
CCAACCCG | 0.148
CCTAGCTC | -0.139
TAATCGAA | 0.13
AGACCCTG | 0.253
AACATGCA | -0.0983
GGTTTTAA | 0.214
CCACTGCA | -0.116
CAAGATGG | -0.0274
CAAATTGG | 0.172
AAATGGGA | -0.0864

Sequence | PBM E-score
GCGAAAAA | 0.179
AGACGGCC | -0.15
CACTTTGG | -0.0421
TCGATAAA | 0.062
AGACCTAC | 0.136
CATCTAAG | -0.211
GCCTTCAC | -0.0971
ATAGGCAT | -0.124
CTGTCAAA | -0.0621
GTCACACA | -0.104
ACTACTAT | 0.125
GATGGCGC | -0.372
CGTGGATC | -0.0643
ACGTAAGA | -0.156
TAATTCAA | 0.176
GACTCGAA | -0.162
ATCGGGCC | -0.229
GCGAGTCC | -0.089
CTGTCGCC | -0.232
CGCCTGGA | -0.198
GAGCTCTA | -0.0486
CTTGAGCC | -0.111
AATCAACA | 0.178
ATCAACAC | 0.0908
CTTCATAC | 0.0338

Sequence | PBM E-score
ACATCTAG | -0.0681
TCTAGACA | 0.0418
CTGAAAGA | 0.094
CCGTGCGA | 0.0277
AGTGGAAA | -0.0686
AAGCAGAC | -0.281
CGAGACCG | 0.0626
GGCAATAC | -0.00913
GCCTTCGA | -0.148
ACCATGGC | 0.229
CTTATCCA | -0.0217
AAAAGATA | 0.206
CCATCCCG | -0.197
AACCGATA | 0.262
TATCTCAA | 0.0995
AACTCCTG | -0.191
GATTTGCA | 0.00632
AGTTAGGC | 0.0637
AACGTCAT | -0.0998
AGCATCAA | 0.0855
ACGTCCGG | -0.094
CACTTGTC | -0.185
GGGCTTTA | -0.221
ACGCTGAA | -0.0692
AAGACCGT | 0.0736

Sequence | PBM E-score
GTCCAACA | -0.0358
CTTATGGC | 0.0876
CTAGCCGA | -0.221
TAACTCCA | -0.00455
GCGCCTCC | -0.196
CTCGCTGC | -0.17
AGTCCCGA | -0.0918
ATGGGATG | -0.0788
ACCTAAGG | 0.185
ATTTTCGC | -0.0813
CTGGCACA | -0.0803
CAAATGAC | -0.0285
AATAGCAC | -0.224
GCGTAGTA | -0.275
GTCATCAA | 0.0375
AACTCAAC | 0.16
GCCAGGCC | -0.291
ACCTCGGA | 0.21
AAGCGAGA | -0.245
GCGGCACA | -0.21
GACCCGGC | 0.122
CACGTTGA | -0.0377
GGTTCGGA | 0.0221
GTTTAGCA | -0.0642
ATTTAACC | 0.418

Sequence | PBM E-score
AGCAAACG | -0.0815
ATGAGCGA | -0.18
TCTACAGA | 0.0576
AGATGCGA | -0.104
CTCCGGGA | -0.108
CCAAGAGA | 0.0454
CATCTGCG | -0.131
AGTTGAAA | 0.241
CGTTTTGA | 0.135
CCAGTGGA | -0.0974
CCCTCTCC | -0.247
ATATGTGA | 0.0706
CCGACAAG | -0.0531
CTTCACAC | -0.0233
AGGTTCAA | 0.073
ATAGTAGG | -0.0305
CTGTGCGC | -0.127
GGGCGGAC | -0.135
TACCTAAA | 0.199
GTTGAAAC | 0.191
TGGCACAA | -0.054
ATAACTGA | 0.175
